# According to PubChem BioAssay AID686979 (National Center for Advancing Translational Sciences (NCATS), 2013):
# The campaign covered roughly 420,000 compounds. About 50,000 (12%) were called active. The inconclusive results got no clear call from the source; some entries with a clear call stand among them for comparison. The call rests on the fitted dose curve; in most records, active means well fitted inhibition curve with a large enough effect; inconclusive means small, poorly fitted or top-dose-only effect; inactive means flat fitted curve, though single readings scatter. No potency is given beside an inconclusive call; the fits are too rough.
# Assay: qHTS for Inhibitors of human tyrosyl-DNA phosphodiesterase 1 (TDP1): qHTS in cells in presence of CPT; further: nearly all actives have a fitted effect of over 55% in size
# Details: chicken DT40 Tdp1-/-;hTDP1 cells + 20 nM CPT, ATP luminescence, 48 h; activity change, negative = growth inhibition: at 46.2 µM (top of the series) unless noted
# Summary of the method: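 Chicken DT40 Tdp1-/- cells stably complemented with human TDP1 were seeded at 400 cells/well in medium containing 20 nM camptothecin, exposed to pin-transferred compounds, and grown at 37 °C for at least 48 hr. Viability was read as ATP luminescence.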
# On the % scale 0 is the no-effect control and ±100 the full control effect; potency means the concentration at half of the fitted maximal effect; tags describe the fitted curve by direction and shape.
Structure (SMILES),Potency,"activity change, negative = growth inhibition"
Cc1nc2ncnn2c(N2CCCC(C(=O)Nc3ccccc3Br)C2)c1C (centres undefined),"inconclusive [inhibitor, partial curve]",
Cc1ccc(C)c(CN2CCC(CNC(=O)Nc3cccc(Cl)c3C)CC2)c1,"inconclusive [inhibitor, single point]",
CCn1cc(C2=NC(c3ccccc3)CO2)c2ccccc21 (centres undefined),"inconclusive [inhibitor, single point]",
COCCn1c(=NC(=O)CSC(C)=O)sc2cc(OC)ccc21,"inconclusive [inhibitor, single point]",
Cc1ccc(C)c(N2C(=O)N(Cc3ccccc3C)c3ccccc3S2(=O)=O)c1,active: 18.4 µM,
CC1=CC(C)(C)N(C(=O)c2ccc(F)cc2)c2cc3c(cc21)OCO3,"inconclusive [inhibitor, single point]",
Cc1ccc(C2(C)NC(=O)N(CC(=O)Nc3ccc4c(c3)CCC4)C2=O)cc1 (centres undefined),,inconclusive: -31.1% [inhibitor]
COc1cccc(CN(C)C(=O)Cc2c[nH]c3ccccc23)c1OC,"inconclusive [inhibitor, single point]",
CCC(=O)N1c2ccc(S(=O)(=O)NCc3ccccc3)cc2CC1C (centres undefined),"inconclusive [inhibitor, single point]",
CS(=O)(=O)c1ccc2nc(NC(=O)CN3CCCCCC3)sc2c1,inactive,
CC[C@H](C)[C@H]1CNC(=O)C(=O)N1CC1CCN(CC2CCC(C)CC2)CC1 (some centres undefined),,inconclusive: -33.4% [inhibitor]
CCOc1cccc2cc(-c3nnc(NCc4ccc5c(c4)OCO5)s3)c(=O)oc12,"inconclusive [inhibitor, partial curve]",
O=C(NC(=S)Nc1cccc(Cl)c1N1CCOCC1)c1cccs1,"inconclusive [inhibitor, single point]",
CCC1(C2CCN(Cc3cccnc3)CC2)NC(=O)N(CC2COc3ccccc3O2)C1=O (centres undefined),,inactive: -5.78% [at 9.04 µM]
COC(=O)CNC(=O)Cn1ccc2ccccc2c1=O,inactive,
CCCN(CCC)C(=O)C1CCC(CNS(=O)(=O)c2cccc3nsnc23)CC1 (centres undefined),"inconclusive [inhibitor, single point]",
COCCCNC1=C(Cl)C(=O)c2ccccc2C1=O,"inconclusive [inhibitor, single point]",
CCc1ccc(NC(=O)CN(C)S(=O)(=O)c2ccc3c(c2)c(=O)n(C)c(=O)n3C)cc1,"inconclusive [inhibitor, partial curve]",
Cc1cc(C)n(CCC(=O)N2c3ccccc3CC2C)n1 (centres undefined),"inconclusive [inhibitor, single point]",
Cc1cccc(C(=O)N2CCCC(Nc3ccc(F)c(F)c3)C2)n1 (centres undefined),inactive,
O=C(NC(=S)Nc1ccc(N2CCCCC2)c(Cl)c1)c1cccs1,active: 7.31 µM,
Cc1ccc(NC(=O)[C@@H]2CCCN2S(=O)(=O)c2ccc(Cl)cc2)cc1,active: 20.6 µM,
CC(C)Sc1cc(N2CCOCC2)nc(-c2ccccc2)n1,active: 23.1 µM,
Cc1nn(Cc2cccc(C(=O)Nc3ccn(Cc4c(F)c(F)cc(F)c4F)n3)c2)c(C)c1[N+](=O)[O-],"inconclusive [inhibitor, single point]",
O=C(CSc1oc(-c2ccccc2)nc1S(=O)(=O)c1ccc(Br)cc1)c1ccccc1,"inconclusive [inhibitor, partial curve]",

Structure (SMILES),Potency,"activity change, negative = growth inhibition"
Cc1nc2ccc(NC(=O)c3ccc(Cl)c(NC(=O)c4cccs4)c3)cc2s1,"inconclusive [inhibitor, single point]",
CC(=O)Nc1cc(-c2cccc(C)c2)cn2c(-c3ccc(S(C)(=O)=O)cc3)cnc12,active: 14.6 µM,
COc1ccccc1Nc1c2c(nc3ccc(N)cc13)CCCC2,active: 16.4 µM,
Cc1cc(N2Cc3ccccc3C2)ccc1C=O,"inconclusive [inhibitor, single point]",
c1ccc(N2CCN(c3nc4ccccc4n4nnnc34)CC2)cc1,"inconclusive [inhibitor, single point]",
OC(COCc1cccs1)CN1CCN(c2ccccc2Cl)CC1 (centres undefined),"inconclusive [inhibitor, single point]",
Cc1cc(C)n(CC(=O)N2CCc3ccccc32)c(=O)c1C#N,inactive,
COc1cc(C(=O)Nc2nnc(C3=COCCO3)o2)cc(OC)c1OC,inactive,
CCOC(=O)C1CCN(C(=O)c2cc(-c3ccncc3)nc3ccccc23)CC1,"inconclusive [inhibitor, single point]",
Cc1ccc(NC(=O)Cn2c(O)c(N=NC(=O)c3cc4ccccc4cc3O)c3ccccc32)cc1,active: 7.31 µM,
Cc1ccc(NC(=O)c2nnn(Cc3ccccc3)c2N)cc1C,inactive,
Cc1ccnc2nc(C(=O)OCC(=O)N(Cc3ccccc3)C(C)C)nn12,inactive,
CCOC(=O)c1cc2c(=O)n3ccccc3nc2n(Cc2ccco2)c1=NC(=O)c1ccc(Br)cc1,active: 18.4 µM,
CCN(CC)c1ccc(CC(=O)NC(C)Cc2ccccc2)cc1 (centres undefined),"inconclusive [inhibitor, single point]",
O=C(COC(=O)CN1C(=O)C2CCCCC2C1=O)Nc1cc(F)ccc1F (centres undefined),"inconclusive [inhibitor, partial curve]",
Cc1ccc(Cn2cnc3c(nnn3Cc3ccc(Cl)cc3)c2=O)cc1,,inconclusive: -27.5% [inhibitor]
CCOC(=O)C1=C(COC(=O)Cc2ccc(Cl)cc2)NC(=O)NC1C (centres undefined),inactive,
Cc1cc(C)n(CC(O)COc2ccc(C(C)(C)C)cc2)n1 (centres undefined),"inconclusive [inhibitor, single point]",
O=C(Nc1ccc(Br)cc1)c1ccc(F)c(S(=O)(=O)NC2CCCCCC2)c1,active: 2.91 µM,
Cc1cc(=O)oc2cc(OCC(=O)Nc3ccc(N4CCC(C)CC4)cc3)ccc12,"inconclusive [inhibitor, single point]",
Cc1ccc2ccc(C(Nc3ccccc3)c3ccc(C(C)C)cc3)c(O)c2n1 (centres undefined),active: 14.6 µM,
CCOc1ccc(CCNC(=O)COC(=O)CNC(=O)c2ccc(Br)o2)cc1OCC,"inconclusive [inhibitor, single point]",
C/C(=N\Nc1cccc([N+](=O)[O-])c1)c1ccccc1O,"inconclusive [inhibitor, single point]",
CCOC(=O)c1nnc(-c2ccc(C)cc2)nc1Sc1cccc(Cl)c1,active: 9.2 µM,
Cc1cc2oc(=O)cc(CN3CCN(S(=O)(=O)c4cccs4)CC3)c2cc1C,"inconclusive [inhibitor, single point]",

Structure (SMILES),Potency,"activity change, negative = growth inhibition"
COc1ccc(OC)c(S(=O)(=O)N2CCCC(C(=O)N3CCCCCC3)C2)c1 (centres undefined),inactive,
O=C(Cn1nnc2ccccc21)Nc1ccc(Cl)cn1,inactive,
COc1ccccc1CNC(=O)c1ccc(Cl)c(S(=O)(=O)N2CCCC2)c1,,inconclusive: -30.2% [inhibitor]
CC1(C)Cc2c(ccc3ccccc23)/C(=C/C(=O)N2CCCCC2)N1,active: 16.4 µM,
O=S(=O)(/C=C/c1ccccc1)NC1CCCCCCC1,"inconclusive [inhibitor, single point]",
COc1ccc(CN2CC[C@H]3C=CCc4cccc(c43)C2)cc1,"inconclusive [inhibitor, single point]",
CCN(Cc1ccccc1)C(=O)CN1C(=O)NC(CC)(c2ccc(F)cc2)C1=O (centres undefined),inactive,
CCOC(=O)/C(=C\c1cn(C)c2ccccc12)[N+](=O)[O-],"inconclusive [inhibitor, single point]",
CCOc1ccc(NS(=O)(=O)c2ccc3ncsc3c2)cc1,"inconclusive [inhibitor, single point]",
CC(=O)Nc1ccc(NC(=O)CSc2nnnn2C2CCCCC2)cc1,inactive,
CC(Oc1ccc(Cl)cc1)c1ccnn1S(C)(=O)=O (centres undefined),inactive,
COc1ccccc1N1CCN(c2nc3ccccc3n3cnnc23)CC1,"inconclusive [inhibitor, single point]",
O=C1C(=O)c2ccccc2C(O)=C1CCCCl,active: 5.8 µM,
CC(C)c1nc(SCC(=O)NC2CCCC2)c2c(=O)n(C)c(=O)n(C)c2n1,inactive,
Cc1ccc(-c2nc(-c3ccccn3)no2)cc1,active: 7.31 µM,
CCOCCCNC(=O)c1cccc(NC(=O)C2=C(C)OCCS2)c1,inactive,
O=C(Nc1c(-c2ccccc2)nc2ccccn12)c1ccccc1,inactive,
CC(C)(C)C(=O)Nc1ccc(C(=O)CN2C(=O)NC3(CCOc4ccccc43)C2=O)cc1 (centres undefined),"inconclusive [inhibitor, single point]",
O=C(NC1CCCCC1)C(c1cccc2ccccc12)n1c(=O)c(-c2cc3ccccc3[nH]2)nc2ccccc21 (centres undefined),"inconclusive [inhibitor, single point]",
COc1ccc(NC(=S)NNc2ccc(C(=O)O)cc2)cc1,inactive,
Cc1ccc2nc(N(CCCN(C)C)C(=O)c3ccco3)sc2c1,"inconclusive [inhibitor, single point]",
Cc1cc(C)n2c(Nc3ccccc3)c(-c3ccc(C)o3)nc2n1,"inconclusive [inhibitor, single point]",
COc1ccccc1NS(=O)(=O)c1ccc(O)cc1,"inconclusive [inhibitor, single point]",
O=C(NCC1COCCO1)c1ccc2nc(Cc3cccc(Cl)c3)oc2c1 (centres undefined),inactive,
